Measurements: article PMC4336329 (PLoS ONE, 2015)
Screen size: about 310,000 compounds; about 2,200 (0.71%) showed an effect of 50% or more. Effects have a minus sign here. The list shows a part of the results.

These compounds were tested against human ether-à-go-go-related gene (hERG) potassium channel (human, UniProt Q12809) (assay: primary screen, population patch clamp on CHO cells stably expressing hERG).
Sequence of human ether-à-go-go-related gene (hERG) potassium channel (Q12809 whole entry, looked up): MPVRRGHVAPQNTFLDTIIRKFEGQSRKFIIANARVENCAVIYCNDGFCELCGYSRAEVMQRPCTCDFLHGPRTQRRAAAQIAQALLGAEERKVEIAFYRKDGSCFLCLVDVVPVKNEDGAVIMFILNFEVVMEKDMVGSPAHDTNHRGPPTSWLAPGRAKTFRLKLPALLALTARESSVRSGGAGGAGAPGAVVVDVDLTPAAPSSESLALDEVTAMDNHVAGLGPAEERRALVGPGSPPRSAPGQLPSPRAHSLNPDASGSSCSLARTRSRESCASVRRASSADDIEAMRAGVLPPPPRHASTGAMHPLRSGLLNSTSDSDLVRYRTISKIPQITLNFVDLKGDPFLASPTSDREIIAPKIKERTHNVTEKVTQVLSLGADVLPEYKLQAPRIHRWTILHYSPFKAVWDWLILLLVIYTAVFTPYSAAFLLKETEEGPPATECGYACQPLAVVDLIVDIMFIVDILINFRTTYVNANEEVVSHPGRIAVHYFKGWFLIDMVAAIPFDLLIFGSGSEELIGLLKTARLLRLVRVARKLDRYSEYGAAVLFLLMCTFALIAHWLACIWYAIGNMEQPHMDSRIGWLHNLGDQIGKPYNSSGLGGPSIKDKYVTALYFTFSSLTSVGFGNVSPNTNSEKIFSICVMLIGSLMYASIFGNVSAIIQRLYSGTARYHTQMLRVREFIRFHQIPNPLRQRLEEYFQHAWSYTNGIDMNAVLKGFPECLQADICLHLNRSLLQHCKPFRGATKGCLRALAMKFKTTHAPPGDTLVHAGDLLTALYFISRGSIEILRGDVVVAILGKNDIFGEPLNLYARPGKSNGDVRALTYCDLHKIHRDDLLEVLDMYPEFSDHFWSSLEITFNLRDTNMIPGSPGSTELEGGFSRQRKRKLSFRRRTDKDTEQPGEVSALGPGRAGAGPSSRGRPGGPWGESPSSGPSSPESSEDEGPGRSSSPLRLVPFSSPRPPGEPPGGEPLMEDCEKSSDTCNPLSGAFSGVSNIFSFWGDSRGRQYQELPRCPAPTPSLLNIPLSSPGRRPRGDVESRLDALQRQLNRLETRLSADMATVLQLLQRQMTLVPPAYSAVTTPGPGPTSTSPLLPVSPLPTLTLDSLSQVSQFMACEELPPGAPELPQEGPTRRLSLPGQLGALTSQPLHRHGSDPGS

| Structure (SMILES) | hERG current change (%, negative = inhibition) at 1uM [%] |
| --- | --- |
| Cc1cc(C(=O)N/N=C/c2cccc(OC(=O)c3cccc(Br)c3)c2)n[nH]1 | 12.7 |
| CNC[C@H](CC1CCCCC1)NC[C@H](Cc1ccccc1)NCCC12CC3CC(CC(C3)C1)C2 | 16 |
| O=C1NC(=O)C(=Cc2ccc(-c3ccccc3[N+](=O)[O-])o2)C(=O)N1 | 6.55 |
| COc1ccc(CNC(=O)COc2ccc(OC)cc2)cc1 | 14.1 |
| COc1ccc(C2(C)NC(=O)N(CC(=O)NC(C)c3ccc(CC(C)C)cc3)C2=O)cc1 (stereo not shown) | 13.3 |
| COC(=O)c1ccsc1NC(=O)CN1CCN(c2ncccn2)CC1 | 10.1 |
| O=C(NNC(=O)c1ccncc1)Nc1ccc([N+](=O)[O-])cc1 | 3.3 |
| CCCOc1cccc(C(=O)NCCNC(=O)c2ccccn2)c1 | 11.2 |
| O[C@@H]1CN(Cc2ccc(-n3cccn3)cc2)CC[C@H]1N1CCN(c2ccccc2F)CC1 | -39.7 |
| Cc1ccc(C(=O)N2CCN(S(C)(=O)=O)C2)cc1 | -2 |
| Cc1ccc(S(=O)(=O)NCCC(=O)Nc2cc(S(=O)(=O)N(C)C)ccc2C)cc1C | 14.3 |
| CCCCOc1ccc(C(=O)NCC(=O)NCCOc2ccccc2OC)cc1 | 5.67 |
| CCC(=O)Nc1nnc(SCC(=O)NC2CCCC2)s1 | 15.7 |
| O=C(Nc1ccc2c(c1)CCC2)c1cccc(S(=O)(=O)Nc2ccccc2Cl)c1 | 11.9 |
| O=C1c2ccccc2S(=O)(=O)N1Cc1cccc(S(=O)(=O)N2CCOCC2)c1 | 12.2 |
| CCOC(=O)c1ccc2c(c1)N(CC)C(=O)c1ccccc1S2 | 9.82 |
| COc1ccc(-c2cn(-c3ccc(C)cc3)c(=O)n2CC(=O)Nc2ccc(OC)c(OC)c2)cc1 | 7.81 |
| Oc1csc(Cc2nc(-c3ccc(-c4ccccc4)cc3)cs2)n1 | 11.1 |
| N#Cc1c(Cl)nsc1NC(=O)c1ccccc1 | 5.52 |
| COc1ccc(CCNC(=O)C(=O)NCC2OCCN2S(=O)(=O)c2ccc(Br)cc2)cc1OC (stereo not shown) | 9.31 |
| O=C(CCc1ccccc1)N=C1SC2CS(=O)(=O)CC2N1c1ccccc1F (stereo not shown) | 18.4 |
| CCOc1ccccc1NC(=O)CN1C(=O)COc2ccc(C)cc21 | 15.1 |

| Structure (SMILES) | hERG current change (%, negative = inhibition) at 1uM [%] |
| --- | --- |
| COCC(=O)Nc1ccc(N(C)C)cc1 | 12.1 |
| O=C(CC1C(=O)NCCN1Cc1ccoc1)NCc1cccc(OC(F)(F)F)c1 (stereo not shown) | 5.68 |
| COC(=O)c1sccc1NC(=S)N(C)C1CCCCC1 | 4.75 |
| O=S(=O)([O-])c1cc(O)ccc1O.[K+] | 11.3 |
| CCCCn1cnc2c(sc3nc4c(cc32)CSC(C)(C)C4)c1=O | 18.7 |
| Cc1ccc(NC(=O)CN2CCC(C(N)=O)CC2)cc1[N+](=O)[O-] | -5.78 |
| Cc1ccsc1-c1nc(CN2CCN(C)C(=O)[C@@H]2C)c(C)o1 | -7.78 |
| CCC(C)[C@H](N)c1nnc(SCC(=O)Nc2cccc(Cl)c2)o1.Cl (stereo partly shown) | -2.51 |
| CCN(CC)c1ccc(NC(=O)CN2CCN(c3nc(C)cc(C)n3)CC2)cc1 | 8.96 |
| COc1ccc(CCc2cc(OC)cc(=O)o2)cc1 | 9.87 |
| O=C(c1ccc(Cl)c(Cl)c1)N1CCC(=O)N(C(COCc2ccccc2)Cc2ccccc2)CC1 (stereo not shown) | -11.6 |
| O=C(COc1ccc([N+](=O)[O-])cc1)NC(C(=O)O)C(O)c1cccc([N+](=O)[O-])c1 (stereo not shown) | 12.6 |
| COc1ccc(S(=O)(=O)Nc2c(C(=O)O)[nH]c3ccc(OC)cc23)c(OC)c1 | 28 |
| CCOc1ccc(S(=O)(=O)N(CC)CC(=O)NCc2cccnc2)cc1 | -23.7 |
| O=CNCC(=O)NC1CCCCCC1 | 17.8 |
| O=C(NCc1ccc(-c2csnn2)cc1)c1cc(Cl)cc(Cl)c1 | 6.88 |
| CCn1nc(C)c(CNC(=O)c2cc(COc3ccccc3SC)on2)c1C | 16.6 |
| COc1cc2cc(Oc3ccc4ccc(=O)oc4c3)c(=O)oc2cc1O | 14.7 |
| CN(C(=O)COc1ccc(Oc2ccccc2)cc1)C1CCS(=O)(=O)C1 (stereo not shown) | 12.3 |
| CC1CCCCC12NC(=O)N(CC(=O)c1ccc[nH]1)C2=O (stereo not shown) | 7.93 |
| Cn1cnnc1SC1CCCCC1NS(=O)(=O)c1ccccc1 (stereo not shown) | 5.61 |
